Measured values reported in the supplement of paper PMC11417369.
± gives the standard deviation of the averaged measurements. Some of the results follow.

The sequences below were run on PfAP2-EXP AP2 domain (GST-tagged) (assay: gcPBM binding intensity (ln(normalized median fluorescence intensity)); higher = stronger DNA binding).
Outline: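 GST-tagged P. falciparum DNA-binding domains produced in E. coli were incubated for 1 h on an Agilent 4 × 180k array of primer-extended double-stranded 36-bp intergenic genomic probes with negative controls. Binding intensity is the highest Masliner-normalised natural-log median intensity across replicate spots of either probe orientation, with bound protein detected by Alexa488 anti-GST antibody at 488 nm.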

Sequence | gcPBM binding intensity (ln)
AGTTTTATAAAAATATGTACTTATATACACATGTAT [XGTACX_site4022] | 8.62 ± 0.36
TATGGCAAAACATTCACACATATTTATATATGTGTA [CACACA_site5588] | 8.11 ± 0.44
TGTAGTCTGGAGAAAAGTACACAGTATCTGGTAACA [XGTACX_site2010] | 8.46 ± 0.47
CGTATTATTTTATAAACACACAAGGGGGCATGTATA [CACACA_site6489] | 10.1 ± 0.44
CTTTAGTTTTTAATGTGTACTGAATTTGAATAGTAG [XGTACX_site7920] | 8.59 ± 0.071
TTGATATGTACAGGCACACATAAATTTCACAAATAT [CACACA_site3999] | 8.47 ± 0.33
CATAAATGTATATAAACATGCAAGGACAGACTTTTA [TGCATGCA_site900] | 8.76 ± 0.42
ATATAATTAAAAACATGTACATATATATATATATAT [XGTACX_site2882] | 10.2 ± 0.55
GTAAAAATACAAAAGGTGCTCAAACAATATAATACA | 8.87 ± 0.36
AAAATTAAATTATAAGCACACACATATATATATATA [CACACA_site9105] | 10.2 ± 0.52
TACATACAGATATATACACACATATATAATATATAT [CACACA_site4376] | 8.52 ± 0.44
TACATACCTATATACACATGCATATTTACATATATT [TGCATGCA_site206] | 9.09 ± 0.42
TATATAATATATATGACACACATATTTATATAAATA [CACACA_site4054] | 8.29 ± 0.4
AATGGATTGATAAGTGGTACACACATATATATTATA [XGTACX_site6086] | 8.66 ± 0.38
GAATATTAAACAAACACACACACATATATTTATATA [CACACA_site7563] | 8.63 ± 0.42
AAAAGATATATTATATGTACTAATTATATGATAAAT [XGTACX_site4192] | 8.43 ± 0.28
AAAGAGAAATTTAAATGTACATTTGTTCTAAGTGTA [XGTACX_site3602] | 8.49 ± 0.35
AATTATGAAAAATCAAGTACAAACAAAATCATAATT [XGTACX_site5665] | 8.94 ± 0.63
CATACACCCATACATACACACATACATATATATATA [CACACA_site8591] | 9.895 ± 0.064
ATATAATGTTTCACATGTACAAACAACACAAAAAAA [XGTACX_site1899] | 8.73 ± 0.47
TATTATATTCTGCTTACACACATATATATATATATA [CACACA_site3060] | 10.3 ± 0.38
TTAAAAAAAGAAAAAAAAAAAAAAAAAAAAAAACAT [CACACA_negctrl_site475] | 8.29 ± 0.5

Sequence | gcPBM binding intensity (ln)
TATAAAAATATTTCTACACACATTAATATTTATATA [CACACA_site6661] | 8.31 ± 0.36
GTGATAATTGCTTGGTGTACCCACATATATATATAT [XGTACX_site1636] | 9.98 ± 0.29
GTTCTAAATATTATTGCATGTTGCACGTTTCTCTGT [TGCATGCA_site159] | 9.09 ± 0.3
TATTATATTTATATTTGTACTTAAAATATTATACAC [XGTACX_site2881] | 8.41 ± 0.35
AGTATACGCAAACACACACACACAAAAAAAAAAAAA [CACACA_site426] | 8.27 ± 0.54
AAATAAGAAAATCATAGTACATAGGAATAGAAGAAC [XGTACX_site3135] | 9.38 ± 0.34
AGAAAAATTATATATACACACTTATATTTATATATA [CACACA_site5555] | 8.17 ± 0.33
TACGTTCTGATATATACACACCTGGTATTAATTATG [CACACA_site7113] | 8.93 ± 0.46
TTTTTTTTTTTAAATTGTACTTATTTTATATTATAT [XGTACX_site1077] | 8.41 ± 0.32
TATTAAATATTGTAATGTACATATATAATATAATAT [XGTACX_site1809] | 8.53 ± 0.17
ATATCTTATTTTCCTTGTACTTATTTCATAATTACA [XGTACX_site3894] | 9.01 ± 0.4
AATGTCATGATACATACACACACATACACATACACA [CACACA_site8665] | 8.54 ± 0.56
TAAATATGTATAAATTGTACAAAATATATGAATAGT [XGTACX_site5659] | 8.94 ± 0.29
CAATAAACCATTTTTTGTACATAAAAATAGGTATTG [XGTACX_site1892] | 8.51 ± 0.41
AATTTCCCATATTACACACATACTATGATATATAAA [CACACA_site3834] | 8.68 ± 0.39
CACATATAGTTATATGCACACATCTTACACATCTAT [CACACA_site5937] | 8.63 ± 0.18
AACACAGATAAATTAACACACACACCCATATATATA [CACACA_site9310] | 8.9 ± 0.36
CAATTTGGGGTGTACACACACCTTATTTAAATTAAA [CACACA_site6663] | 8.43 ± 0.33
TTGAACTCTCTTACGCGTACGTGTTATTATGAAAAT [XGTACX_site6265] | 8.85 ± 0.47
TAGCTTATTAATATCATACACACATAGATATATTTA [CACACA_site3105] | 8.28 ± 0.5
ATGAAATATCGGAACGCACACATAAATATATTTATA [CACACA_site2670] | 8.66 ± 0.65
TATATATATATATGTGCATGTAATGATTCAGCATCT [TGCATGCA_site803] | 10.1 ± 0.3

Sequence | gcPBM binding intensity (ln)
ATGTAAATATATATATGTACTAATTAGTAGTTTACG [XGTACX_site6271] | 8.92 ± 0.44
AAAAGGAATATAATCATTCAAAAATATAATATATAT [GTGCAC_negctrl_site551] | 8.34 ± 0.28
TTACATAATTTCTGCTGTACCAATTTTGAGAAGTTG [XGTACX_site4023] | 8.54 ± 0.45
ATCTTAACTCTATGCACACATAAAAGTATATAAATA [CACACA_site2256] | 8.63 ± 0.28
TCCTTATTACTTTTTTAAGTCGTAATGAAAGAAAAA [CACACA_negctrl_site1497] | 8.2 ± 0.36
TTTTATAAATTATAATTCTATTATCTGTTCTTTTTA [TGCATGCA_negctrl_site487] | 8.51 ± 0.41
CATACATACATACATACACACATACAGATATATATA [CACACA_site4890] | 9.15 ± 0.32
TTTTATTTTTTTAAATGTACACATATTAATGTAAGG [XGTACX_site319] | 8.41 ± 0.16
ATCATCCAAGATCTTACACACATATTAAATAAATAA [CACACA_site1473] | 8.48 ± 0.48
ATCATGTTATATACATGTACATATATATATATATAA [XGTACX_site609] | 8.51 ± 0.4
TTTTTAAAACATCACTGTACCCGTTATGGTGAACAT [XGTACX_site3483] | 8.46 ± 0.28
ATATTCTTTTTATGTGGTACTAATTTTTTTTTTTTA [XGTACX_site3791] | 8.69 ± 0.42
TAAAACATAAGAGACACACACACATATATATATATA [CACACA_site3643] | 9.8 ± 0.68
AGTAAAAGAAAGCACACACACATGTATATAGGTATG [CACACA_site7759] | 8.87 ± 0.52
TTTTTAAATAATTGAAGTACACATTTCTCTAAGTTG [XGTACX_site2846] | 8.2 ± 0.28
TTTTTTTTTTTGTTTAAACACACGAGCTTTCTTCTT [CACACA_site4085] | 8.77 ± 0.55
CATGTATTTTATATTACACACTAATATTATAGATAT [CACACA_site6819] | 8.27 ± 0.28
AAACATATAAACATATGTACATATAAACATATATAC [XGTACX_site5026] | 8.64 ± 0.33
ATTTCTCAATCTTAATGTACAAAAAAAAGGAAAAAG [XGTACX_site1210] | 8.65 ± 0.45
ATATGTTTTGTTTACGTGCACTGCTTTGTTTATATA [GTGCAC_site9622] | 9.68 ± 0.45
AGCATATTATCATATTGTACATATTATAATATATAT [XGTACX_site3907] | 8.69 ± 0.42
AGCAAATCAGATAGTAGTACATTTAAATTAGACTTT [XGTACX_site4172] | 8.48 ± 0.25

Sequence | gcPBM binding intensity (ln)
TAAAAATTTTAATAAACACACAATGAGATATTGAAT [CACACA_site5704] | 8.55 ± 0.45
CAAAATAAAAATAACACACACATTTATATATATACA [CACACA_site1190] | 8.62 ± 0.32
TTTTTAATTATCTTTTCCCATGGTTTCTCCGTTTTT [XGTACX_negctrl_site39] | 8.87 ± 0.61
GTATTAGATAAATACACACACAAGCATATATTTTTA [CACACA_site3431] | 8.27 ± 0.33
TCTATTCATTTTGAAGGTACACATTTCTTTATAATA [XGTACX_site6218] | 8.45 ± 0.35
AATAAATATATAAATACACACAAACATACATATATA [CACACA_site9340] | 8.73 ± 0.39
AAAAATATATATATATATATATATATAAGGAATATA [XGTACX_negctrl_site450] | 8.7 ± 0.33
AATATATCATTATATAAACACACAATATGTTTTTTA [CACACA_site9260] | 8.14 ± 0.43
AATACAATATAGTGAAAAATAATTAAATACAATAAG [XGTACX_negctrl_site161] | 8.62 ± 0.29
CGTAAACAATTATGATGTACATAAAATATATATATA [XGTACX_site2705] | 9.6 ± 0.22
TTGTTCCACAAAAATTTAGTCAAAAAAAAATAAAAA [TGCATGCA_negctrl_site546] | 8.28 ± 0.45
AATGAATAACAATACTATATGATTTTTAATACATTA [XGTACX_negctrl_site42] | 8.12 ± 0.4
ACAAAAAAAAAAATAACACACATGGGGGTGTATAAA [CACACA_site3797] | 9.2 ± 0.26
TTAAATTTTTTTTTGTGTACGAAAAACAGAAAAAAT [XGTACX_site8625] | 8.63 ± 0.37
ATATATATATACATATGTACATATAAAATAATTTTG [XGTACX_site3731] | 9.56 ± 0.12
TATGTGTATGGGAATGCATGTAAATATGTACATATA [TGCATGCA_site737] | 9.31 ± 0.38
AAAATTAAAATATATACACACATATATATATTAAAT [CACACA_site4419] | 8.23 ± 0.38
TCTTCCCAAATAAAGTGTACATAAATACGAATAATA [XGTACX_site4363] | 8.74 ± 0.53
TAATGTATATGTAAATGTACATGTATATTATTTAAA [XGTACX_site1840] | 8.36 ± 0.25
AAGATATTTGTATAATGTACAAAACTATATAAAACT [XGTACX_site1433] | 8.61 ± 0.24
ATCAAAGATAAATTTACACACATATATATATATATA [CACACA_site2969] | 10.1 ± 0.26
TATTTTCATTTGCGCGCACACAATAATAATTTTTGG [CACACA_site3525] | 9.04 ± 0.47
